{"source": "PubChem BioAssay (NCATS)", "note": "Inconclusive means that the source gave no clear call. Such entries were picked first, then a sample of the others. Potencies of inconclusive entries are left out as doubtful fits. The source made the active and inactive calls. The call rests on the fitted dose curve; in most records, active means well fitted inhibition curve with a large enough effect; inconclusive means small, poorly fitted or top-dose-only effect; inactive means no such curve, though single readings can be large or run the other way. Potency means the concentration at half of the fitted maximal effect; tags describe the fitted curve by direction and shape.", "data": [{"biological_target": "Rap guanine nucleotide exchange factor 3 (Homo sapiens) (UniProt O95398)", "sequence (O95398 whole entry, looked up)": "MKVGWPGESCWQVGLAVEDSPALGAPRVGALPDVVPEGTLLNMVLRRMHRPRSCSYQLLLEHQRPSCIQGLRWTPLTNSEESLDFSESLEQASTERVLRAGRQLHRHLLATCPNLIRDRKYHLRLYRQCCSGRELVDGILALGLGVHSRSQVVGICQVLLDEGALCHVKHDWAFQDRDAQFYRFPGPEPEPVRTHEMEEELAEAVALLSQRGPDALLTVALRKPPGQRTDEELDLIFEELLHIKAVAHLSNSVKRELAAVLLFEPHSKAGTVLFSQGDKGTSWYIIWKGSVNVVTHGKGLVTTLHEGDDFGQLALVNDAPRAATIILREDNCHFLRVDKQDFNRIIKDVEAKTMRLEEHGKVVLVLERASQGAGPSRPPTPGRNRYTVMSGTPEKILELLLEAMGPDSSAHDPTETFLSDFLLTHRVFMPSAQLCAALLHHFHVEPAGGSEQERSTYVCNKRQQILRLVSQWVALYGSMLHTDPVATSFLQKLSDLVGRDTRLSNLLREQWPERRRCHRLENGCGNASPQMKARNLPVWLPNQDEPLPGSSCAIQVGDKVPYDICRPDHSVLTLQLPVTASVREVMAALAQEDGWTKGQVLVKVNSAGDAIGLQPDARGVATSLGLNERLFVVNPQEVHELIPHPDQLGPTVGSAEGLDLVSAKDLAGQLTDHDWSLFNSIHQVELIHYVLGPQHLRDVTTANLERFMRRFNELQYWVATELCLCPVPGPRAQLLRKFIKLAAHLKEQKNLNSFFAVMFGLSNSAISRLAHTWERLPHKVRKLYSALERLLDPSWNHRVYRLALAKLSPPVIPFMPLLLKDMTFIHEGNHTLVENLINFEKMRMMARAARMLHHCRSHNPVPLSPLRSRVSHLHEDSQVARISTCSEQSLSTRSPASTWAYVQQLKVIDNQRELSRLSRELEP", "test": "Confirmatory qHTS for antagonist of cAMP-regulated guanine nucleotide exchange factor 3 (EPAC1) (AID 1645880); further: nearly all actives have a fitted effect of over 55% in size;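 on activity, negative = inhibition: plate controls were DMSO only for no effect and full effect of the ATA control for full effect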", "conditions": "EPAC1 Rap1B-BODIPY-GDP exchange, fluorescence; activity, negative = inhibition: at 115 µM (top of the series)", "how_it_was_run": "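Nucleotide exchange uses 100 nM EPAC1, 250 nM RAP1B-BODIPY-GDP and 50 uM GDP, with compounds in a concentration-titration series. After 5 min at room temperature, fluorescence (480 nm ex/540 nm em) is read every 5 min for 30 min. Data are normalized to control ATA and DMSO.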", "values": [{"smiles": "Cc1ccc(OCCC(=O)OCC(=O)NNC(=O)c2ccccc2)cc1", "Potency": "inactive"}, {"smiles": "CC(C)(C)C(=O)N1CCC2CC1c1cc(-c3ccc4c(c3)OCO4)ccc12", "note": "(stereo not given)", "Potency": "inconclusive [inhibitor, partial curve, poor fit]"}, {"smiles": "CC(C)CNC(=O)c1[nH]c(C(F)(F)F)nc1-c1ccccc1", "Potency": "inactive"}, {"smiles": "CCC1(c2ccccc2)SCC(c2ccccc2)=NC1=O", "note": "(stereo not given)", "Potency": "inconclusive [inhibitor, full curve, poor fit]"}, {"smiles": "Cc1ccc(S(=O)(=O)CC(=O)c2cc3cccc(C)c3oc2=O)cc1", "activity, negative = inhibition": "inconclusive: -33.2% [inhibitor]"}, {"smiles": "Cc1ccc(NC(=O)CCC(=O)c2cccs2)nc1", "Potency": "inconclusive [inhibitor, partial curve, poor fit]"}, {"smiles": "O=S(=O)(c1ccc2nc(-c3ccco3)c(-c3ccco3)nc2c1)N1CCOCC1", "Potency": "inconclusive [inhibitor, full curve]"}, {"smiles": "Cc1nc(C)n(CC(=O)NCC2Cc3cc(-c4cccc(OC(F)(F)F)c4)ccc3O2)n1", "note": "(stereo not given)", "Potency": "inactive"}, {"smiles": "O=C(C=Cc1ccccc1)c1c[nH]c2ccccc2c1=O", "Potency": "inconclusive [inhibitor, partial curve]"}, {"smiles": "CCOc1ccc2nc(NC3=NC(c4ccc(OC)cc4)CC(=O)N3)nc(C)c2c1", "note": "(stereo not given)", "Potency": "inconclusive [inhibitor, full curve, poor fit]"}]}]}
